Data reported in the supplement of paper PMC11417369.
The other results are listed elsewhere or left out.

Each sequence was assayed on PF3D7_0420300 AP2 domain 1 (GST-tagged) (assay: gcPBM binding intensity (ln(normalized median fluorescence intensity)); higher = stronger DNA binding).
Summary of the method: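 Binding intensity values are the highest Masliner-normalised natural-log median intensity among replicate spots of either probe orientation. The binding step lasted 1 h in 1× PBS with 1% milk, 0.2 mg/ml BSA, 0.5% salmon testes DNA and 0.03% Triton X-100, using GST-tagged P. falciparum DNA-binding domains expressed in E. coli on an Agilent 4 × 180k array of primer-extended double-stranded 36-bp intergenic genomic probes plus negative controls. Alexa488 anti-GST antibody and a 488 nm scan detected bound protein.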

Row | Sequence | gcPBM binding intensity (ln)
1 | GTTTTTTTTTTTTTGGTGCGTCATTTTCAAAAGAAG [GTGCAC_site9745] | 9.25
2 | AAAAAAGAAAAGAAATGTACAGAGCTTATCTTTTTA [XGTACX_site5677] | 9.07
3 | TTATTCCTATTTGGATGTACATTTTAATATAAACAT [XGTACX_site4386] | 9.25
4 | TTCAATTTTACATGTAGTACATAAATTATACACAAA [XGTACX_site4946] | 9.12
5 | TTTTTTAATTTTACATGTACATACAGGTTTTTTTTT [XGTACX_site4539] | 9.31
6 | AATGATAAAAATAAATGTACAGAATGATATTTTTTT [XGTACX_site5976] | 9.27
7 | ATTAATAAATAAATGACACACACACCCACAAAAAAA [CACACA_site8839] | 9.97
8 | AAAAAATTGTTTCCCTGTACTCAAAAAAAAAAAAAA [XGTACX_site8070] | 8.81
9 | TAAATTTAAAATGACACACACTAAAATTATTTAAGT [CACACA_site4816] | 9.67
10 | ACCTTTAATATATACACACACATAAAAAAAATATAT [CACACA_site1843] | 9.86
11 | AAATATTCATAGTATACACACATTTATTTATAACCA [CACACA_site6502] | 9.51
12 | TAAAAGTATTCCTTTTGTACATATAATGAAAACAAT [XGTACX_site2069] | 9.01
13 | CTGTTTTTACTAAGTTGTACAAATGATGATACCCTA [XGTACX_site630] | 9.11
14 | ATACAATAATATAAATGTACAAATTATATCTTAATT [XGTACX_site6004] | 9.22
15 | CTATATTTTTAAAAATGTACTTTATAATAAAATACT [XGTACX_site3593] | 8.97
16 | GTATGTATGTATGTATGTACTTATTTATTTATTTAT [XGTACX_site1921] | 9.54
17 | TCTAATCTGGAGAAAAGTACATAGTATCTGGTAACA [XGTACX_site2540] | 9.17
18 | TTATTCATACAATATCGTACATATATATATATATAT [XGTACX_site1185] | 9.36
19 | ATCTTATATATATGTGTGCACGTATATATAAGCAAT [GTGCAC_site9933] | 9.39
20 | GTACACCTATAATATACACACAACAAATATGCACAT [CACACA_site6603] | 9.8
21 | ATTATATATATATATACACACACATATATATATATA [CACACA_site8373] | 9.57
22 | TTATAAATAAAAAGAGTGCAATTATAAATATATATA | 9.25
23 | AAAAAAATACAAATATGTACACATATATATTTAAAA [XGTACX_site4729] | 9

Row | Sequence | gcPBM binding intensity (ln)
24 | AAATAAAATATGAACAGTACTTTTGATATAACCATT [XGTACX_site1873] | 9.49
25 | ATTTAAAATAGAAGTTATATTTATATGGGTGAAAAA [GTGCAC_negctrl_site296] | 9.14
26 | GGAATAACCGGACACACACACACATATATATATATA [CACACA_site5874] | 10
27 | ATAAATTTACATTTTTTTTTTTTTTTTTTTTTTTTT [GTGCAC_negctrl_site689] | 9.16
28 | GTATAGTACAAATAAGTGCATATAAAAGAAATACAG | 9.64
29 | AAAAAATATACATATTGTACATTTTTTATTAACACA [XGTACX_site6415] | 9.12
30 | TAATTTTTATTCAGTTCACACACGCTTTAATATTAT [CACACA_site9147] | 9.58
31 | ATTACCAAAAAAAGGTGTACAAATATAATTATGAAA [XGTACX_site44] | 9.27
32 | TTTTCCTTTCACAATGGTACACAAATATACATGCAA [XGTACX_site7244] | 9.04
33 | ATTTTTTTTCGTAATTGTTCTTAATGTTGAATTATA [CACACA_negctrl_site1135] | 9.46
34 | TAGTAATATGTATCCATACACACATACATTTTATTT [CACACA_site873] | 9.55
35 | TTTATATTTAAAGAAACATGCATTTATCATATATAC [TGCATGCA_site173] | 9.1
36 | TACACGCATAAACACACACACACACCCATATATATA [CACACA_site8114] | 10.4
37 | CAATTTATAAAGAAAACACACATATACCTATATACA [CACACA_site6710] | 9.55
38 | TCTATAATATTTTTCACACACCATTTCCTTAAACAC [CACACA_site6747] | 9.6
39 | AAAAAAATAAAATACAAAATGGCTATACAAAATAAA [GTGCAC_negctrl_site535] | 9.57
40 | TTTGTTGACGAACACACACACATACATATTTATATA [CACACA_site7141] | 9.79
41 | ATTACATATGTCGCTTGTACGCATAATTTTTTTATA [XGTACX_site5782] | 9.44
42 | ATTTTTTTATTTTGAAGTACATAAACTTTATATATA [XGTACX_site1746] | 9.25
43 | ATTTAAAAAAAAAGACGTACATTTATATAGAATCCT [XGTACX_site6457] | 9.19
44 | TAGTTCCTCAAAAATTTCCTTTGTCATTTTATTCAC [GTGCAC_negctrl_site20] | 9.22
45 | TACATAAATTAATAGTCACACACGTATTTTTTATAT [CACACA_site8806] | 9.45
46 | TAAAGAAATTCTTCATGTACTTATTATTTCTCTTTT [XGTACX_site6817] | 9.1

Row | Sequence | gcPBM binding intensity (ln)
47 | GTTATACAAAATAATACATGCATGTCCTACATATAT [TGCATGCA_site320] | 9.44
48 | TATGGAATAAATTTATCCATACATCTTATAACATAT [XGTACX_negctrl_site500] | 9.11
49 | AGCTATATAAATAATACATGCATTGTTCAGGTATTT [TGCATGCA_site964] | 9.16
50 | ATTTATAATATTCAAGTGCATATATATTTTTTACTT | 9.32
51 | AAAAAATTATATAATAATAGAACTATACATTTTATT [GTGCAC_negctrl_site645] | 9.09
52 | ACATAATATATATATTGTACAAATATATTATTGTTA [XGTACX_site3385] | 9.22
53 | AGCCACGGGTTATATACACACATAATCAAATAAAAT [CACACA_site6117] | 9.62
54 | TATGTAATAAAATATACACACAATATACTTATATAT [CACACA_site3682] | 9.55
55 | ATTTTTAATGGATAAGTGCATAATATTATGATGCAA | 9.09
56 | TGTATTCCTTTTTATAGTACAATTTAAAAGTATAAA [XGTACX_site2045] | 8.97
57 | GTACGTTTCTCCAGACTGCACTATACGACTCGTACA [GTGCAC_site9771] | 9.21
58 | AGAAAGATGCAAGAAACATGCAAAAAAAAAATTTCT [TGCATGCA_site725] | 9.15
59 | CACAAATATACAAATACACACAAATATACTCATATA [CACACA_site5339] | 9.87
60 | ATACAAAAAATCACATGTACATATTCTTAAATGGTA [XGTACX_site8502] | 9.34
61 | AATAATAATTTGAATACACACAATAATATATATATA [CACACA_site2059] | 9.56
62 | TTATATCATTTTCCTGCACACATAAATTTATATAAT [CACACA_site8257] | 9.62
63 | ACAAAATATACAAAATGTACAAAATATACAAAATGT [XGTACX_site6467] | 9.44
64 | CATATGTATTTATTCACACATATATATATATATATA [CACACA_site4207] | 9.31
65 | TTATTCTAAAAGTGTTTGCACTTTTATAATCATATA [GTGCAC_site9929] | 8.85
66 | TATACAGATAAATACACACACACATATATATATATA [CACACA_site4845] | 10
67 | AATACATTTATGAGCTGTACACATTTATTTGAGCTA [XGTACX_site7695] | 9.13
68 | AGTGTAATTTTCCACTGTACTTTTCTTGTATATAAT [XGTACX_site4201] | 9.45
69 | ATATATATTAATATTTGTACATAAAATTATTTCAAT [XGTACX_site5364] | 9.05

Row | Sequence | gcPBM binding intensity (ln)
70 | AAAGTAACACACTAATATTTTAACAAATAATATATA [GTGCAC_negctrl_site132] | 9.43
71 | TACATAAAATATATCACACATATAATATATATATAT [CACACA_site5834] | 9.25
72 | AAAAAAAAAAAAAAATATAAATATATATATATATAT [GTGCAC_negctrl_site28] | 8.79
73 | AATTAAATATTATAAACACACATATATATTATTTTT [CACACA_site865] | 9.37
74 | AAACGAACATATAAATGTACATATATATACATATAT [XGTACX_site8086] | 9.43
75 | TATGTATTAAATTTTACACACATGATTCTCTATATA [CACACA_site2298] | 9.71
76 | ATTGTAAATATAGAAGTGCAAAAGGGTATGAAATGA | 9.63
77 | TACAAAAAAAATGTATTTAGGACATATATATGTTTA [XGTACX_negctrl_site455] | 9.02
78 | TATATAAAATAATAATGTACTCATTAAAATTATAGA [XGTACX_site4507] | 9.06
79 | AAAGAAAAAAAAAAAAAAAAAAAAAAAATTATACAT [CACACA_negctrl_site7] | 9.06
80 | ATGTATCCAATAGGAGTGCATAATTCTATTAACACC | 9.24
81 | TACATATTGCACAAATAAAAAAGAACAAAAAAAAAA [CACACA_negctrl_site1200] | 9.32
82 | GAATTTCGATATATGTGTACGCATTTGTATTATAGG [XGTACX_site6332] | 9.33
83 | ATATATATATATATATGTACATATATTCGATTATTA [XGTACX_site557] | 9.27
84 | ATAATATTTCTTACCTTTGGATGTTCTAATTTTTTT [CACACA_negctrl_site1317] | 9.5
85 | AAAAATAACATATAAACACACATATATATATATATA [CACACA_site3802] | 9.52
86 | TTAATAGAAATACGTGCACACTAAAGGGAAAACAAT [CACACA_site4923] | 9.76
87 | ACAAGTATTAATTACACACTCAAAAAGAAAAAACAA [CACACA_site2281] | 9.41
88 | ATATATTCTATATATACATGCATATATATTATATGT [TGCATGCA_site185] | 9.15
89 | GTTAAATGAAAATATGTACACACTTGAAAATTTTTA [CACACA_site2924] | 9.27
90 | TGAATAAATATGCAGCGTACATAATCCTCTTAAAAT [XGTACX_site8462] | 9.16
